# PubChem BioAssay (NCI)
# “And” between values parts separate entries of the source, which are not always exact repeats. Identical values can stand only once.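 Cultured in 96-well plates, cells were exposed to test compound for 48 hours across five concentrations. GI50 = concentration required for 50% inhibition of growth. The concentration for full growth arrest is given as TGI.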
# System: NCI-H322M lung
# Experiment: NCI-60 cell line screen, 48 h
Compound,TGI,GI50
CCCN(CCC)C(=O)c1c([N+](=O)[O-])cc(C(F)(F)F)cc1[N+](=O)[O-],> 100 µM,–
CC(=O)ONC(C(=O)C(C)(C)C)C(=O)C(C)(C)C,> 100 µM,–
CCOC(=O)c1ccc(N[C@@H]2c3cc4c(cc3C(c3cc(OC)c(O)c(OC)c3)[C@H]3C(=O)OCC32)OCO4)cc1O (some centres not stated),> 91 µM,–
CSc1cc(Cl)c(C)cc1S(=O)(=O)NC(=O)NNc1cccc(C(F)(F)F)n1,> 100 µM,–
N#Cc1c(-c2ccccc2)[nH]c2ccc(Cl)cc2c1=O,> 100 µM,–
CCOC(C)O[C@H]1C(=O)OCC1(C)C (some centres not stated),> 100 µM,–
COCC[C@H]1CCC/C=C/[C@@H]2C[C@H](O)C[C@H]2[C@H](O)/C=C/C(=O)O1,> 100 µM,0.0913 µM
Cc1ccc(S(=O)(=O)N/N=C2/CCCOC2)cc1,> 100 µM,–
CN(C)CCC1(C2=CCCC2)CC/C(=C\c2ccc(Cl)cc2)C1=O (configuration not stated),24.9 µM,–
CC(C)c1ccc(-c2cc(-c3cn[nH]c3-c3ccccn3)ccn2)cc1,> 25 µM,> 25 µM
OCC1OC(n2cnc3c2NC=NC[C@H]3O)C(Cl)C1O (some centres not stated),> 100 µM,–
O=c1cc(-c2ccc(Oc3ccccc3)cc2)[nH]c2cc3c(cc12)OCO3,> 100 µM,–
CCOC(=O)Cc1nc2cc(F)c(F)cc2[nH]c1=O,> 100 µM,–
O=C1C2C3C=C4c5ccccc5N(c5ccccc5)C4(C2C(=O)N1c1ccc([N+](=O)[O-])cc1)[C@H]1C(=O)N(c2ccc([N+](=O)[O-])cc2)C(=O)[C@@H]31 (some centres not stated),> 100 µM,–
CN(Cc1ccccc1)C(=O)c1ccccc1C(=O)O,> 100 µM,–
CC/C=C\C[C@H](O)C/C=C1/C(=O)C=C[C@@H]1C/C=C\CCCC(=O)OC,10.6 µM,2.78 µM
Cn1c(O)c(C(=O)NC2CCCCC2)c(=O)n(C)c1=S,31.5 µM,–
O=c1c2ccccc2nc(Cc2nc(-c3ccc(Cl)cc3)cs2)n1-c1ccc(Cl)cc1,> 100 µM,–
CCc1nc(N)nc(N)c1-c1ccc(NC)c([N+](=O)[O-])c1,> 100 µM,–
NNC(=S)N/N=C(/C(=O)Nc1ccc(Cl)c(Cl)c1)C(C1OC(=O)c2ccccc21)[N+](=O)[O-] (configuration not stated),> 100 µM,–
O=C1c2ccsc2C(=O)c2sc(CO)cc21,3.92 µM,–
COC(=O)C(Cc1nc2ccccc2[nH]c1=O)C(NO)C(=O)Nc1c(Cl)cc([N+](=O)[O-])cc1Cl (configuration not stated),> 100 µM,–
CCOC(=O)c1cc2c3ccn(Cc4ccccc4)c3c3c(C)[nH]oc3c2n1,> 100 µM,–
COc1cc2cc3c4cc(OC)c(OC)cc4cc[n+]3c(C)c2cc1OC (tested in a mixture with another compound),> 65.5 µM,–
COc1cc2c3c(n(CCCN)c(=O)c2cc1OC)-c1ccc(C#N)cc1C3=O,58.6 µM,16.3 µM
Oc1c(N2CCOCC2)cc(-c2cc(N3CCOCC3)c(O)c3ccccc23)c2ccccc12,3.44 µM,–

Compound,TGI,GI50
O=C(N/N=C/c1cc(Br)ccc1O)N/N=C/c1cc(Br)ccc1O,> 100 µM,–
COC(=O)Nc1nc2ccc(S(=O)(=O)SC)cc2[nH]1,> 100 µM,–
CCOC(=O)C1CCN(S(=O)(=O)/N=C2/NC(=O)NC2=C(Cl)Cl)CC1,13.5 µM,2.93 µM
COc1ccc(/C=C/c2c(C(=O)/C=C/c3ccccc3)c(C)nc3ccccc23)cc1,4.17 µM,1.9 µM
C=CCCCCC/C=C\[C@@H](O)C#CC#C/C=C/CO,> 100 µM,> 100 µM
O=S(=O)(c1ccc(NC(=S)NC23CC4CC(CC(C4)C2)C3)cc1)N1CCCCC1,> 100 µM,3.31 µM
O=C1c2cccnc2-c2nc(-c3ccc(Cl)cc3)cc3c2c1nc1ccccc13,65.1 µM,28.1 µM
COc1cc(Cc2nccc3cc(OC)c(OC)cc23)c(C(C)=O)cc1OC,192 µM and > 750 µM,–
CCCC(CCC)NCC(O)c1cc(-c2ccc(C(F)(F)F)cc2)nc(C(F)(F)F)c1 (configuration not stated),3.43 µM,1.84 µM
CN(C)CC1CCCC(CN(C)C)C1OC(=O)c1ccccc1 (configuration not stated),> 100 µM,–
CC(=O)C1Cn2c(nc3ccccc32)C[Se]1 (configuration not stated),13.5 µM,–
CCC(C)NC1=NCC(C)S1 (configuration not stated),> 100 µM,–
C=C(C)[C@H]1Cc2c(ccc3c2O[C@@H]2COc4cc(OC)c(OC)cc4[C@@H]2C3=O)O1,> 100 µM,–
O=Cc1ccccc1COC(=O)c1cc(C(=O)OCc2ccccc2C=O)c(C(=O)OCc2ccccc2C=O)cc1C(=O)OCc1ccccc1C=O,> 100 µM,–
CN1CCc2nc(N)nc(-c3nc(N)nc4c3CN(C)CC4)c2C1,> 100 µM,–
c1ccc(C2N3CCCCC3[C@@H]3c4[nH]c5ccccc5c4CCN23)nc1 (some centres not stated),> 100 µM,–
Nc1ccccc1/C(O)=C1/CCOC1=O,> 100 µM,–
COC(=O)c1cc2c(cc1Cl)Sc1nnc(Nc3ccc(C)cc3)n1S2(=O)=O,22.2 µM,–
C[N+]1(C)CCc2cc(O)c(O)cc2C1Cc1ccc(O)c(O)c1 (configuration not stated),> 100 µM,–
CC1=CCC(O)C=CC(C)C(O)C(C)C=C(C)C(=O)c2c(O)c(C)cc3c2C(=O)C(N)=C(NC(=O)/C=C\C=C/C=CC(C)C(O)CC1=O)C3=O (configuration not stated),> 100 µM,–
CCCCCCCCCCCCCCCC(=O)OCC(C[As](=O)(O)O)OC(=O)CCCCCCCCCCCCCCC (configuration not stated),> 100 µM,–
C[Si](C)(C)OC1CC(=O)OC1n1cc(F)c(=O)[nH]c1=O (configuration not stated),> 100 µM,–
CC1=[N+]([O-])c2ccccc2C(=O)C1=O,> 100 µM,–
CC1CCCCNC1=S (configuration not stated),> 10 µM,–
O=C(c1cccc2ccccc12)N1CCC(C2CCN(C(=O)c3cccc4ccccc34)CC2)CC1,> 100 µM,–
CCOC(=O)N[C@@H]1C(CC(=O)OC)O[C@H]2OC(C)(C)O[C@H]21 (some centres not stated),> 100 µM,–
